# In all, about 310,000 compounds went through this assay and about 2,200 (0.71%) showed an effect of 50% or more. The effect is printed as a negative number. The list shows a part of the results.
# Target: human ether-à-go-go-related gene (hERG) potassium channel (human, UniProt Q12809)
# Assay: primary screen, population patch clamp on CHO cells stably expressing hERG
# Chain of human ether-à-go-go-related gene (hERG) potassium channel (Q12809 whole entry, looked up): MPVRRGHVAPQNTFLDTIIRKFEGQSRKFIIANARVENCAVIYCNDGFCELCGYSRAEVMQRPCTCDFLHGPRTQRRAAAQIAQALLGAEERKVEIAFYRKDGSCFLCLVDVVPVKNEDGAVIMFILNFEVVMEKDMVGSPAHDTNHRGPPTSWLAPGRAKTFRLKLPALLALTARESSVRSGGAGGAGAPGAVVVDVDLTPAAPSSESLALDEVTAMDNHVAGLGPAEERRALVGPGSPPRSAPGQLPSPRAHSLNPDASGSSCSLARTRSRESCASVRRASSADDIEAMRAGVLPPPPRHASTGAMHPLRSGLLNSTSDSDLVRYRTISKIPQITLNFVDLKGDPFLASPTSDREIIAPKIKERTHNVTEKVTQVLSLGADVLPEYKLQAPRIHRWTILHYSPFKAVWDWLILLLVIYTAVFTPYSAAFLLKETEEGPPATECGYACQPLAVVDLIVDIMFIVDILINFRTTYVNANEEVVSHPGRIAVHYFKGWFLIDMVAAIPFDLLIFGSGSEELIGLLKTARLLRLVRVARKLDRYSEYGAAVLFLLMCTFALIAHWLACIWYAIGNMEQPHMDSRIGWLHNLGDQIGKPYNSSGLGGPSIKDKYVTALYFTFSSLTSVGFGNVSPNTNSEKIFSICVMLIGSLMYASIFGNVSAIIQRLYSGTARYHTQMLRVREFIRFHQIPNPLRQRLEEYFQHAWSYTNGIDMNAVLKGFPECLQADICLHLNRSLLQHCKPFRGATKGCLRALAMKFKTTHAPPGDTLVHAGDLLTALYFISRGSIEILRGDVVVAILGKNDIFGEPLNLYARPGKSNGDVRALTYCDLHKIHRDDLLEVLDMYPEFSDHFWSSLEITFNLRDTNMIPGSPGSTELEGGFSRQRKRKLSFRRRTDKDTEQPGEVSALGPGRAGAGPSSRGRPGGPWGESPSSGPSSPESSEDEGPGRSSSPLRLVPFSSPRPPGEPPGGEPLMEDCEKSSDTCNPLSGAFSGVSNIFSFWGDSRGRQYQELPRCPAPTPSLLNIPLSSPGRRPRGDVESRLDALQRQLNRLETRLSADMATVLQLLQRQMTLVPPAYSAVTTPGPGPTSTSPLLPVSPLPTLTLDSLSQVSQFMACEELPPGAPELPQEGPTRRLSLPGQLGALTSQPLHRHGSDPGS
row,Compound,"hERG current change (%, negative = inhibition) at 1uM [%]"
1,COc1ccc(C(=O)Nc2ccc(S(=O)(=O)Nc3nccnc3OC)cc2)cc1OC,7.09
2,S=C(NCc1ccncc1)Nc1cccc(Cl)c1,3.17
3,Cc1ccc(C)c(NC(=O)CSc2ccc(-c3ccco3)nn2)c1,37.8
4,CC(C)(C)c1ccc(OCC(=O)N2CCN(c3ccccn3)CC2)cc1,-2.43
5,COc1ccccc1-c1nc(SCC(=O)Nc2ccccc2F)n[nH]1,8.65
6,COc1cc(C2Nc3ccc4ccccc4c3C3=C2C(=O)CC(C)(C)C3)ccc1OCC(=O)O (stereo not shown),17.5
7,COc1cccc(NC(=O)C(=O)c2cn(CC(=O)N3CCOCC3)c3ccccc23)c1,2.94
8,Cc1cc(C)n(CCN(C)C(=O)C2CCC(=O)N(CCN3CCOCC3)C2)n1 (stereo not shown),16.1
9,CCOc1c(N2CCOCC2)c(=O)c1=O,12.8
10,Cc1ccnc(NC(=O)CCNC(=O)c2ccc(Cl)cc2)c1,19.4
11,CCC1(CC)Cc2ccccc2C(C2=C(O)CC(C)(C)CC2=O)=N1,15.6
12,CCOC(=O)NCc1ccc(CNC(=O)OCC)cc1,12.4
13,COc1cccc(Oc2c(C)oc3cc(OC(=O)N(C)C)ccc3c2=O)c1,-3.35
14,CN1C(=O)N(C)C2(c3ccccc3)N(C(C)(C)C)C(=O)NC12c1ccccc1 (stereo not shown),3.87
15,COC(=O)c1sc2ncccc2c1OCc1c(Cl)cccc1Cl,21.5
16,COc1ccc(N=Nc2ccc(CO)cc2)cc1,13.4
17,CC(C)(C)C(=O)Nc1nnc(SCC(=O)NC2CCCC2)s1,15
18,COc1cc(C(=S)N2CCOCC2)ccc1OS(=O)(=O)c1ccc(NC(C)=O)cc1,1.05
19,O=C(CN(Cc1ccco1)Cc1ccco1)Nc1cc(S(=O)(=O)N2CCCCC2)ccc1Cl,-15.4
20,O=C(NC1CC1)C1CCN(C2CCN(C(=O)/C=C/c3ccc(F)cc3)CC2)CC1,-19.9
21,Cc1ccc(N(Cc2cc(=O)[nH]c3ccccc23)C(=O)c2ccco2)cc1,-6.79
22,Cc1cc(OC(C)C(=O)NCC2CCC(C(=O)O)CC2)c2c(C)cc(=O)oc2c1 (stereo not shown),16.7

row,Compound,"hERG current change (%, negative = inhibition) at 1uM [%]"
1,CC1(C)NC(=O)N(CCOCCOc2cccc(Oc3ccccc3)c2)C1=O,0.0586
2,O=[N+]([O-])c1ccc(S(=O)(=O)CC(CN2CCOCC2)N2CCOCC2)cc1 (stereo not shown),10.9
3,Cc1ccc(Sc2ccc(S(=O)(=O)Nc3ccc(CC(=O)O)cc3)cc2)cc1C,9.99
4,Cc1ccccc1NC(=O)c1ccc2nc(N3CCOCC3)sc2c1,-5.71
5,O=C(c1cccc(C(F)(F)F)c1)C1CCCN(C(=O)CCc2cnccn2)C1 (stereo not shown),-0.36
6,CN1CCN(C(=O)Cn2ncc3c([nH]c4ccccc43)c2=O)CC1,-10.2
7,FC(F)Oc1ccc(-n2cc(-c3ccccc3)[n+]3c2CCCCC3)cc1.[Br-],2.48
8,O=C(O)/C=C/c1cccc(NC(=O)Nc2ccc([N+](=O)[O-])cc2)c1,12.3
9,CCCn1c(-c2ccc(OC)cc2)nc2nc3ccccc3nc21,7.49
10,Cc1csc(SCC(=O)NCCc2ccc(Cl)cc2Cl)n1,-2.65
11,CCN(CC(=O)NCc1cccs1)C(=O)/C=C/c1cccc(Br)c1,-42.3
12,CN(C)CCCN(C(=O)COc1ccc(Cl)cc1)c1nc2cc3c(cc2s1)OCCO3.Cl,-4.94
13,COc1ccccc1/C=C(\NC(=O)c1ccccc1)C(=O)NCc1ccco1,17.1
14,COc1ccc2c(c1)C1(Nc3ccccc3C(=O)N1c1ccccc1)C(=O)N2 (stereo not shown),-0.876
15,Cc1cc(=O)nc2c3ccccc3n(CC(=O)NCCCN3CCCC3=O)n12,10.4
16,O=C(NCc1nc(-c2ccc(Cl)cc2)no1)c1ccc2c(c1)OCO2,9.62
17,Cc1ccc(Nc2nc(N)nc(CCl)n2)c(C)c1,16.4
18,Cn1c(=O)c2c(nc(NCCNC(=O)c3ccco3)n2Cc2ccc(Cl)cc2Cl)n(C)c1=O,16.3
19,Cc1cc(=O)oc2cc(OC(C(=O)O)c3ccccc3)ccc12 (stereo not shown),19.4
20,NC(=[NH2+])SCc1nc2ccccc2c(=O)n1-c1ccccc1.[Br-],6.23
21,COc1ccc(C2SCC(=O)N2CCc2ccc(OC)c(OC)c2)cc1 (stereo not shown),-1.68
22,O=C(CSc1nc(NS(=O)(=O)c2ccccc2)cc(=O)[nH]1)Nc1ccccc1C(F)(F)F,13.4

row,Compound,"hERG current change (%, negative = inhibition) at 1uM [%]"
1,O=C(CCC(=O)N1CCN(S(=O)(=O)c2ccccc2)CC1)NC1CCCc2ccccc21 (stereo not shown),5.41
2,CCOC(=O)C1(CCc2ccccc2)CCN(C(=O)[C@@H]2C[C@@H](C)NC(=S)N2)CC1,6.48
3,O=C(CCNC(=O)c1ccco1)NC(Cc1c[nH]c2ccccc12)C(=O)O (stereo not shown),10.7
4,Cc1ccc(S(=O)(=O)NCCSc2ncccn2)cc1,26
5,COc1cc(C(=O)Oc2cccnc2)cc(OC)c1OC.Cl,14.7
6,O=C(O)C(O)c1ccccc1 (stereo not shown),4.82
7,Cc1cc(C(=O)COc2ccccc2C#N)c(C)n1C1CC1,15.1
8,COc1ccc(CCNC(=O)CSc2nc(O)cc(=O)[nH]2)cc1OC,12.6
9,CCN1C(=O)/C(=C\c2cn(CCC#N)nc2-c2ccc(F)cc2)SC1=S,3.28
10,Cn1nc(C(C)(C)C)cc1C(=O)NCc1ccc(N2CCCC2=O)cc1,-2.21
11,C=CCN=C1CCCc2c1[nH]c1ccc(C)cc21,13.2
12,CCOC(=O)C1CCN(C(=O)C(=O)N2CCC(C(=O)OCC)CC2)CC1,0.923
13,CCOc1cccc2cc(-c3nnc(NCc4ccco4)s3)c(=O)oc12,0.486
14,COC(=O)COc1ccc(C2NC(=O)NC(c3ccccc3)=C2C(C)=O)cc1Br (stereo not shown),17.3
15,O=C(CCCOc1ccc(Cl)cc1Cl)N1CCC2(CC1)OCCO2,-8.4
16,COc1ccc(CCCc2nnc(SCC(=O)Nc3nccs3)n2C)cc1C,14.5
17,CNc1[nH]ncc1[N+](=O)[O-],9.64
18,COc1ccc(/C=N/NC(=O)c2ccncc2)c(OC)c1,20.3
19,C/C=C/c1ccc(OCCCCn2cncn2)c(OC)c1,-3.99
20,COC(=O)c1cnc(NNS(=O)(=O)c2ccc(Cl)cc2)nc1C(F)(F)F,6.92
21,CSc1ccc(C(=O)NCC(c2ccco2)N(C)C)cc1[N+](=O)[O-] (stereo not shown),15.7
22,O=C(C1=C(O)C(=O)N(CC2CCCO2)C1c1cccc(O)c1)c1ccco1 (stereo not shown),10.3

row,Compound,"hERG current change (%, negative = inhibition) at 1uM [%]"
1,CCc1ccc(NC(=O)c2cc(S(=O)(=O)N3CCc4ccccc43)cn2C)cc1,10.7
2,COC(=O)C1=C(c2cc3ccccc3s2)C[C@@H]2CC[C@H]1N2C(=O)NCc1ccc(C(F)(F)F)cc1,14
3,CN(CC(=O)Nc1c(Cl)cccc1Cl)C(=O)CNC(=O)C1CCCCC1,14.4
4,CCOc1cc(CO)cc(Br)c1OCC(=O)Nc1ccccc1C,6.36
5,O=C(Cn1c(=S)[nH]c2ccccc2c1=O)N1CCN(c2ccc(F)cc2)CC1,6.9
6,COc1ccc(CCNCc2ccncc2)cc1.O=C(O)C(=O)O,2.04
7,COc1ccc(O)c(-c2cc(-c3ccc(F)cc3)n[nH]2)c1,4.98
8,CCO.Cc1nn(-c2ccccn2)c2c1C(c1ccsc1)C1=C(CCCC1=O)N2 (stereo not shown),6.64
9,CCOC(=O)c1ccc(NC(=O)CCC2COc3ccccc3O2)cc1 (stereo not shown),13
10,CCn1cc(C(=O)Nc2cc(C)ccc2C)c(=O)c2ccc(C)nc21,12.7
11,Cc1ccc(S(=O)(=O)N(C)CC(=O)N2CCCc3ccccc32)cc1,1.35
12,COCCn1c(-c2ccccc2)nc2ccccc21,0.528
13,COc1cccc(C(=O)NCCNC(=O)c2cnccn2)c1,12.6
14,CCC(NC(=O)Nc1ncccc1C)(C(F)(F)F)C(F)(F)F,-5.65
15,CN(C)c1oc(-c2ccc(OCc3ccccc3)cc2)nc1C#N,10.2
16,CC(C)(C)NC(=O)CSc1nc(Cc2ccccc2)nc2ccccc12,1.92
17,O=c1[nH][nH]c(-c2ccccc2)c1C=Nc1ccc(OC(F)(F)F)cc1,8.84
18,COCCCn1c(C)nnc1SCC(=O)NCc1ccco1,13.7
19,NC(=O)CC[C@@H]1NC(=O)[C@H](CO)NC(=O)c2cc([N+](=O)[O-])cc(I)c2NCC[C@@H](C(N)=O)NC1=O,15.8
20,C=CCn1nnnc1SCC(=O)Nc1ccc(C(=O)OC)cc1,5.3
21,CCOc1cc(/C=N/Nc2nncc(-c3ccccc3)n2)ccc1O,5.12
22,Cc1ccc(N2C(N)=NC(N)=NC23CCCC3)c(C)c1.Cl,13.7
